{
  "source": "PubChem BioAssay (NCATS)",
  "key": {"[1]": {"assay": "MultiTox-Fluor Cytotoxicity Assay - LYMP1-002 - Dead Cells (AID 960; active = well fitted curve in the direction sought with a large enough effect; inconclusive = small, poorly fitted or top-dose-only effect, or another doubt; inactive = no such curve, though single readings can be large; an effect the other way counts as inactive or inconclusive; also: potency is read from the fitted curve at half-maximal effect; nearly all actives have a fitted effect of over 60% in size)", "conditions": "LYMP1-002 lymphoblastoid cells, dead-cell protease fluorescence; cytotoxicity (dead cells): at 46.1 µM (top of the series)", "how_it_was_run": "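Concentration-dependent increases in membrane-leaked protease activity are quantified in LYMP1-002 cells after 16 hr treatment; values are normalized against DMSO and tetraoctylammonium bromide (15 uM) controls and AC50 derived by Hill modeling.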"}, "[2]": {"assay": "qHTS assay for small molecule agonists of the antioxidant response element (ARE) signaling pathway (AID 651741; active = well fitted activation curve with a large enough effect in the signal ratio; inconclusive = small, poorly fitted or top-dose-only effect, or effect the other way, or a change in a side signal; the % refers to the signal ratio; also: potency is read from the fitted curve at half-maximal effect; as to activation: % of control where 0% means no effect)", "conditions": "HepG2 ARE-bla reporter, beta-lactamase FRET ratio, 16 h; activation: at 96 µM (top of the series)", "how_it_was_run": "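Agonist activity is measured as ARE-driven beta-lactamase expression in a stable HepG2 reporter line, using 16 h compound treatment at 37 C and a FRET substrate fluorescence readout after 2 h.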"}, "[3]": {"assay": "qHTS assay to identify small molecules that stimulate interleukin-8 (IL-8) secretion (AID 651758; active = well fitted activation curve with a large enough effect in the signal ratio; inconclusive = small, poorly fitted or top-dose-only effect, or effect the other way, or a change in a side signal; the % refers to the signal ratio; also: potency is read from the fitted curve at half-maximal effect)", "conditions": "HTRF ratio (665/615); activation: at 92.2 µM (top of the series)", "how_it_was_run": "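Secreted IL-8 measured homogeneously by TR-FRET (two labelled anti-IL-8 antibodies, 1-3 h at room temperature) after a 16 h, 37 C compound treatment of THP-1 cells at 2000 cells/well.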"}, "[4]": {"biological_target": "Nuclear receptor ROR-gamma (Homo sapiens) (UniProt P51449)", "sequence (P51449 whole entry, looked up)": "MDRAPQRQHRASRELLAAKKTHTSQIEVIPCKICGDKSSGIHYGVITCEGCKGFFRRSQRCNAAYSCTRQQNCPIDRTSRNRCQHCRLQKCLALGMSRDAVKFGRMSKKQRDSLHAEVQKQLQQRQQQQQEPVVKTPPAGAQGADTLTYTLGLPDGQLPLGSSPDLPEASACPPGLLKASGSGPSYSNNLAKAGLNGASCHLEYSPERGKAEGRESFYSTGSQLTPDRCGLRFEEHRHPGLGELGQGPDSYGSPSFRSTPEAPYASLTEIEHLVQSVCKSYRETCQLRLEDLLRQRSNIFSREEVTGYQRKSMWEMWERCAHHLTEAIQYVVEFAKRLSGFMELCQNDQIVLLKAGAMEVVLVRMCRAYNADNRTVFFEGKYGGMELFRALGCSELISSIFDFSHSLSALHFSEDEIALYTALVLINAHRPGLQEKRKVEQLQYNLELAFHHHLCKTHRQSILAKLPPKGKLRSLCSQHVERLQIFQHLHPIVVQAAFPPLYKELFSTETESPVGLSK", "assay": "qHTS assay for small molecule antagonists of the retinoid-related orphan receptor gamma (ROR-gamma) signaling pathway (AID 651802; active = well fitted curve in the direction sought with a large enough effect; inconclusive = small, poorly fitted or top-dose-only effect, or another doubt; inactive = no such curve, though single readings can be large; an effect the other way counts as inactive or inconclusive; also: potency is read from the fitted curve at half-maximal effect; nearly all actives have a fitted effect of over 60% in size)", "how_it_was_run": "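Doxycycline-induced reporter activity in engineered CHO cells (TET-inducible ROR, RORE-LUC) was measured by luminescence after 16hr compound exposure at 37C.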"}, "[5]": {"assay": "Primary qHTS for inhibitors of SARS-S pseudo-typed particle cell entry (AID 1479145); also: nearly all actives have a fitted effect of over 45% in size; also: potency is read from the fitted curve at half-maximal effect; as to activity change, negative = inhibition: % is scaled to controls: 0 for no effect and ±100 for the full control effect", "conditions": "outcome: at 57.1 µM (top of the series) unless noted"}, "[6]": {"assay": "Primary qHTS for Huh7 cytotoxicity: counterscreen for inhibitors of MERS-S pseudotyped particle cell entry (AID 1479147); as to activity change, negative = cytotoxicity: % is scaled to controls: 0 for no effect and ±100 for the full control effect", "conditions": "activity change, negative = cytotoxicity: at 57.1 µM (top of the series) unless noted"}, "[7]": {"assay": "Primary qHTS for inhibitors of MERS-S pseudo-typed particle cell entry (AID 1479149); also: nearly all actives have a fitted effect of over 60% in size; also: potency is read from the fitted curve at half-maximal effect", "conditions": "outcome: at 57.1 µM (top of the series) unless noted"}, "[8]": {"biological_target": "Peroxisome proliferator-activated receptor gamma (Homo sapiens) (UniProt P37231)", "assay": "qHTS assay for small molecule agonists of peroxisome proliferator-activated receptor gamma signaling (AID 588536; active = well fitted curve in the direction sought with a large enough effect in the signal ratio, with a control signal flat, not every such curve was filed as active; inconclusive = small, poorly fitted or top-dose-only effect, or effect the other way, or a change in a side signal; inactive = no such curve, though single readings can be large or run the other way; the % refers to the signal ratio; also: potency is read from the fitted curve at half-maximal effect;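 as to activation: 0% = DMSO basal wells and 100% = rosiglitazone at 2 µM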)", "conditions": "HEK293 PPARg-UAS-bla, beta-lactamase ratio, 16 h; activation: at 76.7 µM (top of the series), percent of rosiglitazone response, DMSO as zero", "how_it_was_run": "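Cells were plated and held 6–6.5 h at 37 C, then compounds were added as a titration series. After a further 16 h, CCF4 dye was loaded for 2 h at room temperature and emission at 460/530 nm recorded.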"}, "[9]": {"assay": "Primary qHTS for Vero E6 cytotoxicity: counterscreen for inhibitors of SARS-S pseudo-typed particle cell entry (AID 1479150)", "conditions": "activity change, negative = cytotoxicity: at 57.1 µM (top of the series) unless noted"}, "[10]": {"assay": "Primary qHTS to identify inhibitors of SARS-CoV-2 cell entry (AID 1645846); also: potency is read from the fitted curve at half-maximal effect; nearly all actives have a fitted effect of over 45% in size", "conditions": "activity change, negative = inhibition: at 57.1 µM (top of the series)", "how_it_was_run": "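HEK293-ACE2 (Expi293F, stable hACE2), 1500 cells/well, o/n 37C; cpd 23 nL pin, 1 h; MLV-PP w/ SARS-CoV-2-S (Wuhan-Hu-1, Δ19 C-term); 48 h 37C; Bright-Glo luminescence; normalized vs S-PP and bald PP.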"}, "[11]": {"assay": "Validation screen for inhibitors of Lassa infection (AID 463096); also: potency is read from the fitted curve at half-maximal effect"}, "[12]": {"assay": "Cell Viability - LYMP2-013 (AID 970; active = well fitted curve in the direction sought with a large enough effect; inconclusive = small, poorly fitted or top-dose-only effect, or another doubt; inactive = no such curve, though single readings can be large; an effect the other way counts as inactive or inconclusive; also: potency is read from the fitted curve at half-maximal effect; nearly all actives have a fitted effect of over 55% in size)", "conditions": "LYMP2-013 lymphoblastoid cells viability; activity change, negative = cytotoxic: at 92.2 µM (top of the series)", "how_it_was_run": "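In complete culture medium, human lymphoblastoid cells were dosed for 24 hr at 37 C, with tetraoctylammonium bromide (6.4pM to 92 uM) as positive control. Viability reflects luciferase-based ATP signal; AC50 derived from concentration-response curves.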"}, "[13]": {"assay": "Cell Viability - LYMP2-019 (AID 973; active = well fitted curve in the direction sought with a large enough effect; inconclusive = small, poorly fitted or top-dose-only effect, or another doubt; inactive = no such curve, though single readings can be large; an effect the other way counts as inactive or inconclusive; also: potency is read from the fitted curve at half-maximal effect; nearly all actives have a fitted effect of over 55% in size)", "how_it_was_run": "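AC50 values come from Hill-equation modelling of qHTS concentration-response curves, where viability is measured as luciferase-based ATP luminescence in the lymphoblastoid line after 24 hr compound exposure in complete culture medium.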"}, "[14]": {"assay": "Cell Viability - LYMP2-021 (AID 974; active = well fitted curve in the direction sought with a large enough effect; inconclusive = small, poorly fitted or top-dose-only effect, or another doubt; inactive = no such curve, though single readings can be large; an effect the other way counts as inactive or inconclusive;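 also: potency is read from the fitted curve at half-maximal effect; compound exposure lasts 24 hours at 37 °C; nearly all actives have a fitted effect of over 55% in size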)", "how_it_was_run": "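In qHTS format, compounds are tested against 2500 lymphoblastoid cells per well for 24 h; viable cell number is inferred from ATP-driven luciferase light, and Hill-equation fitting yields AC50 values.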"}, "[15]": {"assay": "Cell Viability - LYMP2-008 (AID 980; active = well fitted curve in the direction sought with a large enough effect; inconclusive = small, poorly fitted or top-dose-only effect, or another doubt; inactive = no such curve, though single readings can be large; an effect the other way counts as inactive or inconclusive; also: potency is read from the fitted curve at half-maximal effect; nearly all actives have a fitted effect of over 60% in size)", "how_it_was_run": "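Measured: ATP-dependent luminescence, proportional to viable cell number, in human lymphoblastoid cells treated 24 hr with compound in complete culture medium. Values are AC50s from Hill-equation modelling of qHTS titrations.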"}, "[16]": {"assay": "Cell Viability - LYMP2-010 (AID 981; active = well fitted curve in the direction sought with a large enough effect; inconclusive = small, poorly fitted or top-dose-only effect, or another doubt; inactive = no such curve, though single readings can be large; an effect the other way counts as inactive or inconclusive;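 also: potency is read from the fitted curve at half-maximal effect; cells exposed to compound for 24 hours at 37 °C; nearly all actives have a fitted effect of over 55% in size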)", "how_it_was_run": "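This 24 hr viability screen uses LYMP2-010 lymphoblastoid cells, quantifies ATP via luciferase luminescence, and derives AC50 from Hill fits of qHTS concentration-response data.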"}, "[17]": {"assay": "Cell Viability - LYMP2-024 (AID 988; active = well fitted curve in the direction sought with a large enough effect; inconclusive = small, poorly fitted or top-dose-only effect, or another doubt; inactive = no such curve, though single readings can be large; an effect the other way counts as inactive or inconclusive)", "how_it_was_run": "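Cells at 2500 per well received compound for 24 hr after a 5 hr settling period. Viability was scored by CellTiter-Glo luminescence, with AC50 from Hill fits.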"}, "[18]": {"biological_target": "Peroxisome proliferator-activated receptor gamma (Homo sapiens) (UniProt P37231)", "assay": "qHTS assay for small molecule antagonists of peroxisome proliferator-activated receptor gamma signaling (AID 588537; active = well fitted inhibition curve with a large enough effect in the signal ratio, with a control signal flat, not every such curve was filed as active; inconclusive = small, poorly fitted or top-dose-only effect, or effect the other way, or a change in a side signal; the % refers to the signal ratio; also: potency is read from the fitted curve at half-maximal effect; as to activity, negative = inhibition: % of control where 0% means no effect)", "conditions": "HEK293 PPARg-UAS-bla, beta-lactamase ratio, antagonist mode", "how_it_was_run": "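Cell-based beta-lactamase assay; GW9662 served as the antagonist control. Stimulation used rosiglitazone, final 50 nM, 16 h, 37 C.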"}, "[19]": {"biological_target": "Thyroid hormone receptor beta (Homo sapiens) (UniProt P10828)", "sequence (P10828 whole entry, looked up)": "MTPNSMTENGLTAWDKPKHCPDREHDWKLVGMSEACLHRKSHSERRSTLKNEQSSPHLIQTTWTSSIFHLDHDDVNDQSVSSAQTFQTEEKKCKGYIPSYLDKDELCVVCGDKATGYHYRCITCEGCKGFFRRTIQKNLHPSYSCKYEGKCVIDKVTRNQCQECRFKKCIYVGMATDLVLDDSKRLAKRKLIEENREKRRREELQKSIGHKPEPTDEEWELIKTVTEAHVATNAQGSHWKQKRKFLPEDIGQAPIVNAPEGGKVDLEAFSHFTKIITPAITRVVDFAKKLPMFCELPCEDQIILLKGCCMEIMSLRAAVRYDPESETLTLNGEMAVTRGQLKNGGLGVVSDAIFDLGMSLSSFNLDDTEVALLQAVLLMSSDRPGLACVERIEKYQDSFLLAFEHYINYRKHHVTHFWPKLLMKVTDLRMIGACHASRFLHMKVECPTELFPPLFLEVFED", "assay": "qHTS assay for small molecule antagonists of thyroid hormone receptor beta signaling (AID 588547; active = well fitted inhibition curve with a large enough effect in the signal ratio, with a control signal flat, not every such curve was filed as active; inconclusive = small, poorly fitted or top-dose-only effect, or effect the other way, or a change in a side signal; the % refers to the signal ratio; also: potency is read from the fitted curve at half-maximal effect)", "conditions": "TR-UAS-bla HEK293, beta-lactamase ratio, antagonist mode, 18 h", "how_it_was_run": "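Inhibition of T3-driven (0.4nM final) beta-lactamase reporter activity was measured over 0.59 nM to 92 uM compound after 18 h at 37 C. The cells were GripTite HEK293 TR-UAS-bla in charcoal/dextran-stripped serum, with CCF4 ratio read-out and IC50 from Hill fits.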"}, "[20]": {"assay": "qHTS assay for small molecule agonists of the antioxidant response element (ARE) signaling pathway measured by Nrf2-dependant transcriptional activity (AID 720636; active = well fitted curve in the direction sought with a large enough effect in the repeat runs; inconclusive = weak or mixed curves; inactive = no such curve, though single readings can be large; an effect the other way counts as inactive or inconclusive; also: potency is read from the fitted curve at half-maximal effect; as to activation: % of control where 0% means no effect)", "how_it_was_run": "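HepG2 ARE-luc reporter line, 1% dialyzed FBS; 6 hr attachment at 37 C, compound pinned in, 16 hr at 37 C/5% CO2; ONE-Glo, 30 min RT, luminescence read.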"}, "[21]": {"conditions": "activity, negative = inhibition: at 76.8 µM (top of the series)"}},
  "note": "“And” between values parts separate entries of the source, which are not always exact repeats. Equal values may be shown once. The shares of active, inactive and inconclusive entries below differ from those in the screen. For some assays here: Potencies beside an inconclusive call are fits to weak or partial responses and may not hold up. For some assays here: A note “side channel” means that the fit belongs to a control or component signal, not to the main read-out. The source holds several records for some structures; these can differ, active in one and inactive in another. The source made the active and inactive calls. Unless noted, calls follow the shape of the full dose curve. Tags tell the direction and shape of the fitted curve or compound fluorescence and quenching.",
  "data": [
    {"smiles": "Cc1ccc(O)cc1", "values": [
      {"measurement": "Potency", "setting": "[1]", "result": "inconclusive: 0.251 µM [cytotoxic, full curve]"},
      {"measurement": "Potency", "setting": "[2]", "result": "inconclusive: 47.3 µM [activator, partial curve]"},
      {"measurement": "Potency", "setting": "[3]", "result": "inconclusive: 94.4 µM [rising, single point]"},
      {"measurement": "Potency", "setting": "[4]", "result": "inconclusive: 10.6 µM [inhibitor, single point]"},
      {"measurement": "Potency", "setting": "[5]", "result": "inactive"}
    ]},
    {"smiles": "NC(=O)C1(N2CCCCC2)CCN(CCCC(=O)c2ccc(F)cc2)CC1", "values": [
      {"measurement": "Potency", "setting": "[6]", "result": "inactive"}
    ]},
    {"smiles": "COc1cc(C(=O)NCc2ccc(OCCN(C)C)cc2)cc(OC)c1OC", "values": [
      {"measurement": "Potency", "setting": "[6]", "result": "inactive"},
      {"measurement": "Potency", "setting": "[7]", "result": "inactive"}
    ]},
    {"smiles": "NCCNCCNCCNCCN", "values": [
      {"measurement": "Potency", "setting": "[8]", "result": "inconclusive: 31.6 µM [inhibitor, partial curve]"},
      {"measurement": "activation", "setting": "[8]", "result": "inconclusive: -10.3%"},
      {"measurement": "outcome", "setting": "[5]", "result": "inactive [at 11.4 µM]"}
    ]},
    {"smiles": "CCC(O)c1ccccc1", "note": "(configuration not stated)", "values": [
      {"measurement": "Potency", "setting": "[6]", "result": "inactive"}
    ]},
    {"smiles": "CCN(CCCc1ccccc1)CCCc1ccccc1", "values": [
      {"measurement": "Potency", "setting": "[6]", "result": "inactive"},
      {"measurement": "Potency", "setting": "[7]", "result": "inconclusive: 0.708 µM [inhibitor, full curve, poor fit]"},
      {"measurement": "Potency", "setting": "[9]", "result": "inactive"},
      {"measurement": "Potency", "setting": "[10]", "result": "inconclusive: 8.91 µM [inhibitor, partial curve, poor fit]"}
    ]},
    {"smiles": "O=C1C(CCS(=O)c2ccccc2)C(=O)N(c2ccccc2)N1c1ccccc1", "note": "(configuration not stated)", "values": [
      {"measurement": "Potency", "setting": "[6]", "result": "inactive"}
    ]},
    {"smiles": "COc1ccc([C@@H]2Sc3ccccc3N(CCN(C)C)C(=O)[C@@H]2OC(C)=O)cc1", "values": [
      {"measurement": "Potency", "setting": "[11]", "result": "active: 1.41 µM"},
      {"measurement": "Potency", "setting": "[5]", "result": "inconclusive: 39.8 µM [inhibitor, single point]"}
    ]},
    {"smiles": "O=C(O)CC(O)(CC(=O)O)C(=O)O", "values": [
      {"measurement": "Potency", "setting": "[12]", "result": "inconclusive: 79.4 µM [cytotoxic, single point]"},
      {"measurement": "Potency", "setting": "[13]", "result": "inconclusive: 25.1 µM [cytotoxic, partial curve, poor fit]"},
      {"measurement": "Potency", "setting": "[14]", "result": "inconclusive: 79.4 µM [cytotoxic, single point]"},
      {"measurement": "Potency", "setting": "[15]", "result": "inconclusive: 63.1 µM [cytotoxic, partial curve, poor fit]"},
      {"measurement": "Potency", "setting": "[16]", "result": "inconclusive: 39.8 µM [cytotoxic, partial curve]"},
      {"measurement": "Potency", "setting": "[17]", "result": "inconclusive: 50.1 µM [cytotoxic, partial curve, poor fit]"},
      {"measurement": "Potency", "setting": "[18]; [21]", "result": "inconclusive: 50.1 µM [side channel, rising, single point]"},
      {"measurement": "activity, negative = inhibition", "setting": "[18]; [21]", "result": "inconclusive: 8.38%"},
      {"measurement": "activity, negative = inhibition", "setting": "[18]; at 76.8 µM (top of the series)", "result": "inactive: 4.41%"},
      {"measurement": "Potency", "setting": "[19]", "result": "inconclusive: 0.002 µM [cytotoxic, side channel, full curve, poor fit]"},
      {"measurement": "Potency", "setting": "[2]", "result": "inactive and active: 54.5 µM"},
      {"measurement": "Potency", "setting": "[20]", "result": "inactive and inconclusive: 24.3 µM [activator, partial curve, poor fit]"},
      {"measurement": "Potency", "setting": "[5]", "result": "inconclusive: 14.1 µM [inhibitor, partial curve, poor fit]"}
    ]}
  ]
}
